Measurements: PubChem BioAssay AID1240 (Sanford-Burnham Center for Chemical Genomics, 2008)
About 800 (1.6%) of roughly 50,000 compounds showed an effect of 50% or more. Some of the results follow.

Target: Bcl-2-like protein 10 (Homo sapiens) (UniProt Q9HD36)
Assay: Phenotype converters, Bcl-B/TR3 peptide binding displacement, primary biochemical FP (AID 1240);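 also: 0% = Bcl-B with tracer peptide and DMSO and 100% = tracer peptide lacking Bcl-B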
Settings: GST-Bcl-B / FITC-TR3 peptide fluorescence polarization; stronger effect = higher value; compound at 3.75 mg/L

Chain of UniProt Q9HD36 (Q9HD36 whole entry, looked up): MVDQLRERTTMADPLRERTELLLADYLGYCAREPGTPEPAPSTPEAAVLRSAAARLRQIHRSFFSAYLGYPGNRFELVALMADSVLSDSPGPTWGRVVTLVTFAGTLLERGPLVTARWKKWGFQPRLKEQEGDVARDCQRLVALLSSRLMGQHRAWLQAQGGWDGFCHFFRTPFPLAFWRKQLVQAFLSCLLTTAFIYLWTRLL

| SMILES | displacement [%] |
| --- | --- |
| COc1ccc(CCNC(=O)COc2cccc3ccccc23)cc1 | 4.4 |
| Cc1ccccc1C(=O)Nc1sc2c(c1C(=O)Nc1cccc3ccccc13)CCC2 | -2.8 |
| C(=N\c1nc2ccccc2n1CCN1CCCCC1)/c1ccc2c(c1)OCO2 | 7.1 |
| CCCOc1cccc(C(=O)Nc2cccc(OC)c2)c1 | 11.2 |
| OCn1ncn(-c2ccccc2)c1=S | -7.8 |
| O=C1c2ccccc2C(=O)N1c1ccc(S(=O)(=O)N2CCOCC2)cc1 | 11.8 |
| CCOC1(c2ccccc2)c2ccccc2Oc2ccccc21 | -1.1 |
| COc1cc(OC)c([N+](=O)[O-])cc1/C=C1/C(=O)NC(=S)N(c2cccc(Br)c2)C1=O | 5.9 |
| O=C(Cn1cc(/C=C2/C(=O)NC(=O)N(c3cccc(Cl)c3)C2=O)c2ccccc21)Nc1ccccc1 | 94.7 |
| O=C(COc1ccccc1Cl)Nc1cccc(NC(=O)c2ccccc2)c1 | -0.2 |
| COc1cc(/C=C2\C(=O)NC(=O)N(c3cc(C)cc(C)c3)C2=O)c(Br)cc1O | -5.9 |
| N#CC1=C(N=Cc2ccccc2O)CCC1 | -2.5 |
| Cc1c(-c2ccccc2)n[nH]c1C(=O)N/N=C/c1cccc([N+](=O)[O-])c1 | -10.6 |
| Oc1ccccc1N=Cc1sc2ccccc2c1O | 29.8 |
| COc1ccc(C(=O)N/C(=C\c2ccc(-c3cccc([N+](=O)[O-])c3)o2)C(=O)NCCc2ccccc2)cc1 | 8.8 |
| C/C(=N\N=C1\NC(=O)C(CC(=O)NCc2ccccc2)S1)c1ccco1 (configuration not stated) | 18.7 |
| C=CCNC(=O)c1c(NC(=O)c2ccccc2C)sc2c1CCCCC2 | -1.7 |
| N#CC1=C(N)NC(SCC(=O)c2ccc(Cl)cc2)=C(C#N)C12CCCCC2 | 0.7 |
| CC1(C)c2ccccc2N(CCO)C12C=Cc1cc([N+](=O)[O-])ccc1O2 (configuration not stated) | 6.1 |
| CC(O)c1cccc(NC(=O)c2cnn3c2NC(c2ccco2)CC3C(F)(F)F)c1 (configuration not stated) | 1.3 |
| CCOC(=O)C1C(=O)NC(SC)=C(C#N)C1c1ccccc1[N+](=O)[O-] (configuration not stated) | -1.5 |
| COc1ccc(C(=O)N/C(=C/c2ccc(Br)cc2)c2nc3ccccc3[nH]2)cc1 | 5.7 |
| O=C(CC1SC(=Nc2ccccc2)N(c2ccccc2)C1=O)Nc1ccccc1 (configuration not stated) | 8.4 |

| SMILES | displacement [%] |
| --- | --- |
| O=C(Nc1ccc2c(c1)oc1ccccc12)c1ccc([N+](=O)[O-])cc1 | 0.5 |
| Cc1cc([N+](=O)[O-])c(-c2ccc(/C=N/n3cnnc3)o2)cc1Cl | 1.9 |
| Cc1ccc(S(=O)(=O)Oc2ccc(Br)cc2/C=C2\SC(N)=NC2=O)cc1 | -0.6 |
| Cc1cc(C)n2nc(-c3cccc(Br)c3)cc2n1 | 1.9 |
| O=CNC(Cc1ccc(O)c([N+](=O)[O-])c1)C(=O)O (configuration not stated) | 2.3 |
| O=C(c1ccccc1)N1N=C(c2ccc([N+](=O)[O-])cc2)CC1(O)C(F)(F)F (configuration not stated) | -2.2 |
| CCOC(=O)c1ccc(NC2SC(=O)N(c3ccccc3)C2=O)cc1 (configuration not stated) | 3.8 |
| O=C(N=Nc1c(O)n(CN2CCOCC2)c2ccc(Br)cc12)c1ccncc1 | -0.4 |
| CC(=O)N(CCc1ccc(S(N)(=O)=O)cc1)C1CC(=O)N(c2ccccc2)C1=O (configuration not stated) | 5.4 |
| COc1cccc(/C=C2/C(=O)NN(c3ccc(C)c(C)c3)C2=O)c1 | 15.5 |
| CC(=O)c1c(C)nc(C)nc1NC(=O)Cc1ccccc1 | 4.6 |
| CC1C(=O)NN=C1C(=O)N/N=C/c1cccc(O)c1 (configuration not stated) | -10.8 |
| CCC(Oc1ccccc1)C(=O)NC(C)C (configuration not stated) | -4.3 |
| O=C(CSc1nc2ccc(Br)cc2c(=O)n1-c1ccccc1)NCCOc1ccccc1 | 8.6 |
| COC(=O)C1=C(C)NC(C)=C(C(=O)OC)C1c1ccc(OC)cc1 | -6.7 |
| Cc1cccc(N2C(=O)c3ccc(C(=O)O)cc3C2=O)c1 | 1.3 |
| O=C1CCCC2=C1C(c1ccc(O)cc1)Nc1ccc(C(=O)c3ccccc3)cc1N2 (configuration not stated) | -1.7 |
| O=C(NC(=C(Cl)Cl)S(=O)(=O)c1ccc(Cl)cc1)c1ccccc1 | 10.3 |
| COc1ccc(NC(=O)/C(=C\c2ccco2)NC(=O)c2ccco2)cc1 | -0.6 |
| O=C(Nc1ccc2nn(-c3ccccc3)nc2c1)C(Cl)(Cl)Cl | 3 |
| c1ccc(-c2nc(C3COc4ccccc4O3)cs2)cc1 (configuration not stated) | -2.2 |
| O=C(Nc1ccc(Nc2ccccc2)cc1)c1ccco1 | 1.8 |
| COc1ccc(C(=O)NN2C(=O)C3C4C=CC(C5CC45)C3C2=O)cc1 (configuration not stated) | -6.1 |

| SMILES | displacement [%] |
| --- | --- |
| O=C(CCCN1C(=O)/C(=C/c2ccc(F)cc2)SC1=S)Nc1cccc(C(=O)O)c1 | 38.1 |
| O=C1c2ccccc2NC(c2ccccc2)N1c1ccc(Cl)cc1 (configuration not stated) | 5.1 |
| C=CCOc1ccc(/C=C(\C(=O)c2ccc(C)cc2)c2nc3ccccc3o2)cc1 | 5.9 |
| Cc1ccccc1OC(=O)COc1ccc(Cl)cc1Cl | -3.9 |
| CCN1C(=O)/C(=C\c2ccc([N+](=O)[O-])o2)SC1=S | 11.3 |
| O=C(Nc1c(-c2ccccc2)nc2ccc(Cl)cn12)c1cccs1 | 10.2 |
| Cn1c2c(c3cc(C4CCCCC4)ccc31)CCCC2=O | 13.7 |
| CC1(C)CC(=O)C2=C(C1)c1c(ccc3ccccc13)NC2c1cc([N+](=O)[O-])ccc1N1CCOCC1 (configuration not stated) | -4.6 |
| CCCCN(CN1C(=O)C2CC=C(Cl)CC2C1=O)CN1C(=O)C2CC=C(Cl)CC2C1=O (configuration not stated) | -1.5 |
| O=C(Nc1ccc(N2CCOCC2)cc1)c1cccc(Cl)c1Cl | 14.2 |
| O=C(Nc1cc(C(F)(F)F)ccc1Cl)c1nn2c(c1Br)NC(c1cccs1)CC2C(F)(F)F (configuration not stated) | 6.4 |
| CC(CCc1ccccc1)Nc1cc(N2CCN(S(=O)(=O)c3ccccc3)CC2)ccc1[N+](=O)[O-] (configuration not stated) | 10.3 |
| COCCNC(=O)COc1ccc(Cl)cc1C | -6 |
| Cc1ccc2nc3c(cc(C#N)c(=N)n3CCCN3CCOCC3)c(=O)n2c1 | -10.3 |
| COCCOC(=O)c1ccc(NC(=O)COc2cc(C)c(Cl)c(C)c2)cc1 | 1.4 |
| O=C(CN(Cc1ccccc1)Cc1ccccc1)NC12CC3CC(CC(C3)C1)C2 | -7.3 |
| COc1cc(/C=N/n2cnnc2)cc(Br)c1OCCOc1ccc(C(C)(C)C)cc1 | -7.7 |
| COc1ccc(C2C3=C(CC(C)(C)CC3=O)OC3=C2C(=O)CC(C)(C)C3)cc1C(=O)O | -1.9 |
| CC(CNS(=O)(=O)c1ccccc1)c1ccccc1 (configuration not stated) | -8.5 |
| Cc1sc(NC(=O)COc2ccccc2)nc1-c1ccccc1 | -6.1 |
| CCOc1cc(/C=C2/C(=O)NC(=O)N(c3ccc(OC)cc3)C2=O)cc(Cl)c1O | 4.5 |
